Six molecules from patent US20240269278A1, “ANTI-CD47 ANTIBODY FOR COMBINED TREATMENT OF BLOOD TUMOR” (Nanjing Shunxin Pharmaceuticals Co., Ltd. of Chiatai …, priority 2021, published 2024) can be followed below.

Residue numbers refer to the chain shown, from its start. In names and notes the source's numbering stands.

Sequences and labels used below:
B1: Xi3F10: chimeric anti-CD47 antibody, heavy chain SEQ ID NO: 101, light chain SEQ ID NO: 103 (antibody)
heavy: EVQLQQSVAELMKPGASVKIYCKATGYTFSRYWIEWVKQRPGHGLEWIGEFIPGSDTTNFNEKFKGKATFTAEISSNTAYMQLSSLTSEDSAVYFCARGGLRRMDYWGQGTSVTVSSASTKGPSVFPLAPCSRSTSESTAALGCLVKDYFPEPVTVSWNSGALTSGVHTFPAVLQSSGLYSLSSVVTVPSSSLGTKTYTCNVDHKPSNTKVDKRV[omitted - human IgG4 Fc with S228P (EU numbers)]
light: DIVMTQTPAIMSASPGEKVTMTCRASSSVSSTYLHWYQQKSGASPKLWIYTTSTLASGVPARFSGSGSGTSYSLTISSVEAEDAATYYCQQFSDSTWTFGGGTKLEIKRTVAAPSVFIFPPSDEQLKSGTASVVCLLNNFYPREAKVQWKVDNALQSGNSQESVTEQDSKDSTYSLSSTLTLSKADYEKHKVYACEVTHQGLSSPVTKSFNRGEC
modifications: Heavy chain; Light chain
B2: Xi14A9: chimeric anti-CD47 antibody, heavy chain SEQ ID NO: 105, light chain SEQ ID NO: 107 (antibody)
heavy: EVQLQQSGAEVARPGASVKLSCTVSGFNIEDDYIEWVKQRPEQGLEWIGRIDPANDKTKYAPKFQDKATITGDTSSNTAYLQLSSLTSEDTAVYYCTRPGLRRYYSMDYWGQGTSVTVSSASTKGPSVFPLAPCSRSTSESTAALGCLVKDYFPEPVTVSWNSGALTSGVHTFPAVLQSSGLYSLSSVVTVPSSSLGTKTYTCNVDHKPSNTKVDKRV[omitted - human IgG4 Fc with S228P (EU numbers)]
light: NIVLTQSPKSMSMSVGERVTLSCKASENVVSYVSWYQQKPEQSPKLLIYGASNRYTGVPDRFIGSGSSTDFTLIISSFQPEDLADYHCGQSYSYPLTFGAGTKLELKRTVAAPSVFIFPPSDEQLKSGTASVVCLLNNFYPREAKVQWKVDNALQSGNSQESVTEQDSKDSTYSLSSTLTLSKADYEKHKVYACEVTHQGLSSPVTKSFNRGEC
modifications: Heavy chain; Light chain
B3: Xi16E5: chimeric anti-CD47 antibody, heavy chain SEQ ID NO: 93, light chain SEQ ID NO: 95 (antibody)
heavy: EVQLQQSGPELKKPGETVKISCKASGYTFTNYGMNWVKQVPGKGLKWMGWINTNTGEPTYAEEFKGRFAFSLETSARTAFLQINNLKNEDTATYFCTRFSHLRGPMDYWGQGASVTVSSASTKGPSVFPLAPCSRSTSESTAALGCLVKDYFPEPVTVSWNSGALTSGVHTFPAVLQSSGLYSLSSVVTVPSSSLGTKTYTCNVDHKPSNTKVDKRV[omitted - human IgG4 Fc with S228P (EU numbers)]
light: DAVMTQTPLSLPVSLGDQASISCRSSQSLVHSNGYTYLHWYLQKPGQSPKLLIYKVSNRFSGVPDRFSGSGSGTDFTLKISRLEAEDLGVYFCSQSTHVPPTFGGGTKLEIKRTVAAPSVFIFPPSDEQLKSGTASVVCLLNNFYPREAKVQWKVDNALQSGNSQESVTEQDSKDSTYSLSSTLTLSKADYEKHKVYACEVTHQGLSSPVTKSFNRGEC
modifications: Heavy chain; Light chain
B4: Xi2H8: chimeric anti-CD47 antibody, heavy chain SEQ ID NO: 89, light chain SEQ ID NO: 91, IgG4 (S228P) (antibody)
heavy: QVQLKESGPGLVAPSQSLSITCTVSGFSLTNYGVHWVRQPPGKGLEWLGIIWAGGSTNYNSALMSRLSISKDNSKSQVFLKMNSLQTDDTAMYYCARDDYASMDYWGQGTSVTVSSASTKGPSVFPLAPCSRSTSESTAALGCLVKDYFPEPVTVSWNSGALTSGVHTFPAVLQSSGLYSLSSVVTVPSSSLGTKTYTCNVDHKPSNTKVDKRV[omitted - human IgG4 Fc with S228P (EU numbers)]
light: B3 light with V3F, Y35N, L83V, P101Y, F103L
modifications: Heavy chain; Light chain
B5: hz14A9-2.4: humanized anti-CD47 antibody, heavy chain SEQ ID NO: 185, light chain SEQ ID NO: 187 (antibody)
heavy: QVQLVQSGAEVKKPGASVKVSCKVSGFNIEDDYIEWVRQAPGQGLEWMGRIDPANDKTKYAQKFQGRVTMTGDTSTNTVYMELSSLRSEDTAVYYCTRPGLRRYYSMDYWGQGTLVTVSSASTKGPSVFPLAPCSRSTSESTAALGCLVKDYFPEPVTVSWNSGALTSGVHTFPAVLQSSGLYSLSSVVTVPSSSLGTKTYTCNVDHKPSNTKVDKRV[omitted - human IgG4 Fc with S228P (EU numbers)]
light: DIQMTQSPSSLSASVGDRVTITCKASENVVSYVSWYQQKPGKAPKLLIYGASNRYTGVPSRFIGSGSSTDFTLTISSLQPEDFATYYCGQSYSYPLTFGQGTKLEIKRTVAAPSVFIFPPSDEQLKSGTASVVCLLNNFYPREAKVQWKVDNALQSGNSQESVTEQDSKDSTYSLSSTLTLSKADYEKHKVYACEVTHQGLSSPVTKSFNRGEC
modifications: heavy chain; light chain
B6: Xi2B2: chimeric anti-CD47 antibody, heavy chain SEQ ID NO: 97, light chain SEQ ID NO: 99 (antibody)
heavy: EVMLVESGGGLVQPGGSLKLSCAASGFTFSNYYMSWVRQTPEKRLEWVAYISSGGGSTYYPDSVKGRFTISRDNAKNTLYLQMSSLKSEDTAMYYCAWFAYWGQGTLVTVSAASTKGPSVFPLAPCSRSTSESTAALGCLVKDYFPEPVTVSWNSGALTSGVHTFPAVLQSSGLYSLSSVVTVPSSSLGTKTYTCNVDHKPSNTKVDKRV[omitted - human IgG4 Fc with S228P (EU numbers)]
light: DAVVTQTPLTLSVTIGQPASISCKSSQSLLDSDGKTYLNWLLQRPGQSPKRLIYLVSKLDSGVPDRFTGSGSGTDFTLKISRVEAEDLGVYYCWQGTHFPLTFGAGTKLELKRTVAAPSVFIFPPSDEQLKSGTASVVCLLNNFYPREAKVQWKVDNALQSGNSQESVTEQDSKDSTYSLSSTLTLSKADYEKHKVYACEVTHQGLSSPVTKSFNRGEC
modifications: Heavy chain; Light chain

One data set concerns HL60 cells. Kind of data set: Promotion of macrophage phagocytosis of tumor cells (flow cytometry). Type of data set: cell-based, human. The settings on record: 1 μg/mL antibody, CFSE-labeled HL60 cells, human macrophages. The procedure:
The ability of the anti-CD47 antibodies to promote the phagocytosis of tumor cells by macrophages having SIRPα on the cell surface was determined based on flow cytometry.
Monocytes were isolated from human peripheral blood mononuclear cells (PBMC, Sailybio, Cat. No. 190056) using a monocyte isolation kit ([…], Cat. No. 19058), plated into a 24-well plate (Greiner bio-one, Cat. No. 662-160) at […] cells per well, and induced under 100 ng/mL stimulating factor M-CSF (R&D Systems, Cat. No. 216-MC-010) for 7 days to form macrophages. 1×10^6 target cells HL60 (Shanghai Institute of Biochemistry and Cell Biology, Chinese Academy of Sciences, Cat. No. TCHu23) were suspended in […] CFSE (BD Biosciences, Cat. No. 565082) fluorescent dye (diluted with a PBS buffer to the desired concentration), incubated in a water bath at 37° C. in the dark for 15 min, and washed with a PBS buffer to prepare CFSE-labeled HL60 cells, which were then incubated with each of 10 μg/mL and 1 μg/mL anti-CD47 antibodies (see Table 3 for chimenic antibodies, and see Table 4 for humanized antibodies) in an incubator at 37° C. with 5% CO2 for 1-2 h. The HL60 cells after the incubation were washed three times with a PBS buffer and added to the macrophages. The cells were incubated in an incubator at 37° C. with 5% CO2 for 2-4 h. After the cells were washed three times with a PBS buffer, a mixture of 1260 μL of PBS, 20 μL of anti-APC-CD14 (APC MouseAnti-Human CD14, BD Biosciences, Cat. No. 555399), and 20 μL of PE-CD11b (PE Mouse Anti-Human CD11b/1Mac-1, BD Biosciences, Cat. No. 555388) antibody was added to each well. The cells were incubated at 4° C. in the dark for 30 min, washed three times with a PBS buffer, and digested with trypsin (Gibco, Cat. No. 12604-013). The rate of phagocytosis (%) by the macrophages was determined using a flow cytometer (BD Biosciences, model: C6).
The molecule B1 showed a rate of phagocytosis of 65.7%.

B2 had a rate of phagocytosis of 54.17%.

B3 displayed a rate of phagocytosis of 11.5%.

For B4, the rate of phagocytosis was 7.1%.

B5 had a rate of phagocytosis of 81.65%.

Take B6: the rate of phagocytosis is 7.3%.

Still in this data set, the particulars now being: 10 μg/mL antibody, CFSE-labeled HL60 cells, human macrophages.
For the molecule B1, the rate of phagocytosis came to 59.8%.

The molecule B2 registered a rate of phagocytosis of 44.67%.

In turn, B3 gave a rate of phagocytosis of 28.8%.

B4: the rate of phagocytosis turned out to be 3.5%.

B5: the rate of phagocytosis came out at 81.66%.

Consider B6, for which the rate of phagocytosis amounted to 4.1%.

Still in this data set, the particulars now being: 10 and 1 μg/mL.
Turning to B1, the “promotion of phagocytosis (in words)” value is recorded as “good promoting effects on phagocytosis”.

As for B2, the “promotion of phagocytosis (in words)” value is “good promoting effects on phagocytosis”.

Turning to B3, the “promotion of phagocytosis (in words)” value is on record as “good promoting effects on phagocytosis”.

As for B5, the “promotion of phagocytosis (in words)” value is reported as “better performance”.

Tested on in another data set: not listed separately
Kind of data set: Thermostability assay based on Nano DSF (Prometheus NT.48). Type of data set: physicochemical.
Conditions: not given
On the procedure: The high-throughput protein stability analyzer Prometheus NT.48 is an instrument for acquiring various types of data such as protein molecular structure stability, aggregation stability, and colloid dispersion stability. The melting temperatures (Tm) and the aggregation temperatures (Tagg) of the anti-CD47 chimeric antibodies and the anti-CD47 humanized antibodies were determined using this instrument.
As to B1, the “Tagg (aggregation temperature)” value was found to be 70.59 °C and the “Tm (melting temperature)” value came out at 70.51 °C.

In the case of B2, the “Tagg (aggregation temperature)” value came to 75.75 °C and the “Tm (melting temperature)” value amounted to 66.73 °C.

For the molecule B3, the “Tagg (aggregation temperature)” value was 73.39 °C and the “Tm (melting temperature)” value is 69.89 °C.

Regarding B4, the “Tagg (aggregation temperature)” value turned out to be 68.57 °C and the “Tm (melting temperature)” value was found to be 69.77 °C.

Regarding B5, the “Tagg (aggregation temperature)” value amounted to 68.3 °C and the “Tm (melting temperature)” value is 68.3 °C.

With B6, the “Tagg (aggregation temperature)” value was determined as 61.34 °C and the “Tm (melting temperature)” value turned out to be 62.99 °C.
